PubChem BioAssay (Tox21)
Values joined by “and” are separate entries in the source; they are usually repeats but may differ in a detail not shown here. Equal entries are not always repeated. The shares of active, inactive and inconclusive entries below differ from those in the screen. A potency beside an inconclusive call is a rough fit, not a confirmed value. Some compounds were tested as several samples or in several runs, with calls that do not always agree. Active and inactive are the calls of the source. Calls follow the shape of the dose curve; as a rule, active = well fitted inhibition curve with a large enough effect in the repeat runs; inconclusive = weak or mixed curves; inactive = flat fitted curve, though single readings scatter.

What follows are molecules tested against Voltage-gated inwardly rectifying potassium channel KCNH2 (Homo sapiens) (UniProt Q12809) (assay: Human Ether-a-go-go-Related Gene (hERG) channel small molecule antagonists: fluorescence cell-based qHTS assay (AID 1671200; also: nearly all actives have a fitted effect of over 50% in size)). Conditions: hERG-U2OS cells, FluxOR thallium flux fluorescence; series mostly up to 76.8 µM.
Sequence of UniProt Q12809 (Q12809 whole entry, looked up): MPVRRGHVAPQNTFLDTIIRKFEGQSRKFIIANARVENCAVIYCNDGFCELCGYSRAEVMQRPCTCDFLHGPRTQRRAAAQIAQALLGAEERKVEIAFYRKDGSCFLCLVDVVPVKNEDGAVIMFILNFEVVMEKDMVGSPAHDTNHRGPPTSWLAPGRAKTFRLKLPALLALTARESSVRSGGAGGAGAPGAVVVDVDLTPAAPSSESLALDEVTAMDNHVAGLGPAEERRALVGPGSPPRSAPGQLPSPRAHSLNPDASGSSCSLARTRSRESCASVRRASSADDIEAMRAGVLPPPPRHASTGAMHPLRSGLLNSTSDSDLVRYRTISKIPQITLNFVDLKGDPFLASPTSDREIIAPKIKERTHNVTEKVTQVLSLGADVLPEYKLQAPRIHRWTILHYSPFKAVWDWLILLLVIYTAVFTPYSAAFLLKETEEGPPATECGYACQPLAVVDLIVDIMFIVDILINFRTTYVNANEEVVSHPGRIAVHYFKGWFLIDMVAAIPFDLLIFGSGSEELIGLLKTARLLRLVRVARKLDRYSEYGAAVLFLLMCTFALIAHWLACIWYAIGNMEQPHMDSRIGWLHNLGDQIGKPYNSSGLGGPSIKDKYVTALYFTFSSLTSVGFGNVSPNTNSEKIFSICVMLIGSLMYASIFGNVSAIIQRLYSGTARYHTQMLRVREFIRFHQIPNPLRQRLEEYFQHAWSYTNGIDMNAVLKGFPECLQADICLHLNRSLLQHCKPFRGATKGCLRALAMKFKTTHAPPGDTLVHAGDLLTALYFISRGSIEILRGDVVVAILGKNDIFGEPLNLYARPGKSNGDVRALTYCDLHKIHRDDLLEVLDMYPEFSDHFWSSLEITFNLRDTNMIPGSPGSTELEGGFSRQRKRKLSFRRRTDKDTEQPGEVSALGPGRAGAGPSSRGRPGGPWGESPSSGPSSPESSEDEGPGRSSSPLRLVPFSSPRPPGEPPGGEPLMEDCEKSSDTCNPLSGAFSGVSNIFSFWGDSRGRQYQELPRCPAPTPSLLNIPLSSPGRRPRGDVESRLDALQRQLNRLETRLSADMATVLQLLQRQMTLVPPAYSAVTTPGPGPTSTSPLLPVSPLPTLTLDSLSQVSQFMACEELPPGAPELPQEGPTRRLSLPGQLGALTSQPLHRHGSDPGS
How it was run: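 Cell line hERG-U2OS; dye FluxOR II, 1 h RT dark; Tl+ stimulus; ex 480/em 540 nm, read each second for 2 min.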
Potency is read from the fitted curve at half-maximal effect; tags tell the direction and shape of the fitted curve.

SMILES | Potency
CCOC(=O)c1cn2nc(OP(=S)(OCC)OCC)cc2nc1C | inconclusive: 49 µM [inhibitor, partial curve]
CCCCCCCCCCCCCC[P+](CCCCCC)(CCCCCC)CCCCCC | active: 552 nM and active: 349 nM and active: 691 nM
Clc1ccc(C(c2ccccc2Cl)C(Cl)(Cl)Cl)cc1 (stereo not given) | inconclusive: 19.6 µM [inhibitor, partial curve] and inconclusive: 9.07 µM [inhibitor, partial curve]
O=C1C2(Cl)C3(Cl)C4(Cl)C(Cl)(Cl)C5(Cl)C3(Cl)C1(Cl)C5(Cl)C24Cl (stereo not given) | active: 12.1 µM and active: 14.8 µM
ClC1=C(Cl)[C@]2(Cl)[C@@H]3[C@@H]4C[C@@H]([C@H]5O[C@@H]45)[C@@H]3[C@@]1(Cl)C2(Cl)Cl | inconclusive: 23.8 µM [inhibitor, partial curve]
ClC1C(Cl)C(Cl)C(Cl)C(Cl)C1Cl (stereo not given) | inconclusive: 54.9 µM [inhibitor, single point] [middle of 4 runs]
ClC1=C(Cl)C2(Cl)C(CBr)CC1(Cl)C2(Cl)Cl (stereo not given) | inconclusive: 49 µM [inhibitor, partial curve]
ClC1=C(Cl)C2(Cl)C3C(Cl)C(Cl)CC3C1(Cl)C2(Cl)Cl (stereo not given) | inconclusive: 27.5 µM [inhibitor, partial curve]
C=C(C)C(=O)[O][Sn]([CH2]CCC)([CH2]CCC)[CH2]CCC | active: 4.9 µM
CCCCCCCc1ccc(O)cc1 | inconclusive: 21.9 µM [inhibitor, partial curve]
